The chains are these.
B1: PhoQ; a variant is named by its letters at X, in order, P23837 (parent)
chain: MKKLLRLFFPLSLRVRFLLATAAVVLVLSLAYGMVALIGYSVSFDKTTFRLLRGESNLFYTLAKWENNKLHVELPENIDKQSPTMTLIYDENGQLLWAQRDVPWLMKMIQPDWLKSNGFHEIEADVNDTSLLLSGDHSIQQQLQEVREDDDDAEMTHSVAVNVYPATSRMPKLTIVVVDTIPVELKSSYMVWSWFIYVLSANLLLVIPLLWVAAWWSLRPIEALAKEVRELEEHNRELLNPATTRELTSLVRNLNRLLKSERERYDKYRTTLTDLTHSLKTPLXXLQXXLRSLRSEKMSVSDAEPVMLEQISRISQQIGYYLHRASMRGGTLLSRELHPVAPLLDNLTSALNKVYQRKGVNISLDISPEISFVGEQNDFVEVMGNVLDNACKYCLEFVEISARQTDEHLYIVVEDDGPGIPLSKREVIFDRGQRVDTLRPGQGVGLAVAREITEQYEGKIVAGESMLGGARMEVIFGRQHSAPKDE

This is one part of the list. Where only a bound is given, the exact number is not on record here.

In the experiment the parent is B1. The experiment can be described thus: enrichment ratio after two sorts for PhoP signalling (ratio (wild type AVST 3.29)); higher = more functional. As to conditions: with PhoP (E. coli).
As for MFAK, the enrichment ratio was ≤ 0.25.

On to HRGK, for which the enrichment ratio was ≤ 0.25.

Consider KLIQ, for which the enrichment ratio is ≤ 0.25. The result for VGGG reads ≤ 0.25. On to IGNT, for which the enrichment ratio was ≤ 0.25.

Turning to MESS, the enrichment ratio turned out to be 5.15.

In the case of NLYG, the enrichment ratio was ≤ 0.25.

Consider THVI, for which the enrichment ratio stood at 2.32. Take WKQM: the enrichment ratio was ≤ 0.25.

On to RQRA, for which the enrichment ratio is ≤ 0.25. The result for WPFS reads ≤ 0.25; that for EADQ, ≤ 0.25; that for NIIF, ≤ 0.25. In the case of MDAI, the enrichment ratio worked out at 3.77. Consider LYHP, for which the enrichment ratio is ≤ 0.25. As for SKGV, the enrichment ratio was 0.285. The result for SPFE reads ≤ 0.25; that for PQIY, ≤ 0.25; that for HMLA, ≤ 0.25.

In the case of TNWN, the enrichment ratio was ≤ 0.25. In the case of PISC, the enrichment ratio is ≤ 0.25. With WMAP, the enrichment ratio was ≤ 0.25. Regarding TFKK, the enrichment ratio was ≤ 0.25.

Turning to YPNG, the enrichment ratio was ≤ 0.25. The result for TLEM reads ≤ 0.25; that for HLHG, ≤ 0.25. With YTAP, the enrichment ratio was ≤ 0.25.

On to PFHM, for which the enrichment ratio was ≤ 0.25.

TRNM: the enrichment ratio is ≤ 0.25. Consider VCSA, for which the enrichment ratio was ≤ 0.25. Then ALSF, with 12.1; and TKYS, with ≤ 0.25. As for NGEG, the enrichment ratio is ≤ 0.25. The result for IHYY reads ≤ 0.25; that for MPRY, ≤ 0.25. For PKIK, the enrichment ratio was ≤ 0.25. The result for SMYV reads ≤ 0.25; that for RGDI, ≤ 0.25. The result for DMTH reads ≤ 0.25; that for VRLF, ≤ 0.25. Consider WFER, for which the enrichment ratio was ≤ 0.25.

Take REQR: the enrichment ratio was ≤ 0.25. The result for YECM reads 0.314; that for GFQN, ≤ 0.25; that for TYKD, ≤ 0.25. Consider YWDL, for which the enrichment ratio is ≤ 0.25. Take WGPK: the enrichment ratio was ≤ 0.25. Regarding KEPP, the enrichment ratio was ≤ 0.25. Consider KANV, for which the enrichment ratio was ≤ 0.25.

As to YGQS, the enrichment ratio is ≤ 0.25. Then IGRF, with ≤ 0.25; and LSMI, with 6.47; and KFSK, with ≤ 0.25.

On to DRLH, for which the enrichment ratio is ≤ 0.25. Then HMHP, with ≤ 0.25; and GADY, with ≤ 0.25.

On to SKVC, for which the enrichment ratio was 9.89. For HMDW, the enrichment ratio was ≤ 0.25.

For GCKL, the enrichment ratio was ≤ 0.25. For the variant QIAW, the enrichment ratio was ≤ 0.25.

As to DNYE, the enrichment ratio was ≤ 0.25.

For FHDW, the enrichment ratio is ≤ 0.25. For WLRM, the enrichment ratio was ≤ 0.25. For DFGE, the enrichment ratio is ≤ 0.25. Regarding DDCS, the enrichment ratio is ≤ 0.25. YSCF: the enrichment ratio is 0.842. For the variant WQMF, the enrichment ratio was ≤ 0.25. For LNNY, the enrichment ratio worked out at 1.79.

Turning to KHDK, the enrichment ratio was ≤ 0.25.

On to CIFN, for which the enrichment ratio was ≤ 0.25. ASGR: the enrichment ratio was ≤ 0.25. For the variant ALCR, the enrichment ratio turned out to be 6.94. In the case of QAGP, the enrichment ratio was ≤ 0.25. For EPRI, the enrichment ratio is ≤ 0.25. For the variant MMRV, the enrichment ratio is ≤ 0.25. Take LQRH: the enrichment ratio is ≤ 0.25. The result for KAII reads ≤ 0.25.

For KLKY, the enrichment ratio is ≤ 0.25. As to LQVR, the enrichment ratio is ≤ 0.25.

On to VERG, for which the enrichment ratio was ≤ 0.25. On to GYDS, for which the enrichment ratio was ≤ 0.25.

For DIIY, the enrichment ratio was ≤ 0.25. In the case of ASCW, the enrichment ratio turned out to be 1.22.

IMKR: the enrichment ratio is ≤ 0.25. For YRLT, the enrichment ratio is ≤ 0.25.

For QVNP, the enrichment ratio is ≤ 0.25. For TPAI, the enrichment ratio was ≤ 0.25. With SYHS, the enrichment ratio was ≤ 0.25.

As for TRHQ, the enrichment ratio was ≤ 0.25. Regarding TFKR, the enrichment ratio is ≤ 0.25. Regarding SAFP, the enrichment ratio is ≤ 0.25.

In the case of VNIQ, the enrichment ratio was ≤ 0.25. The result for NKGH reads ≤ 0.25; that for VFWI, ≤ 0.25.

Turning to TNLT, the enrichment ratio worked out at 2.17.

Turning to MDLQ, the enrichment ratio is ≤ 0.25. In the case of YRWF, the enrichment ratio is ≤ 0.25. In the case of NDFD, the enrichment ratio was ≤ 0.25. For the variant VCKH, the enrichment ratio was ≤ 0.25.

Consider PFHP, for which the enrichment ratio is ≤ 0.25. Then LANG, with ≤ 0.25; and MHKT, with ≤ 0.25. Take QFFS: the enrichment ratio is ≤ 0.25. Take ERCP: the enrichment ratio was ≤ 0.25.

Consider ILMA, for which the enrichment ratio is ≤ 0.25.

For DMMM, the enrichment ratio is ≤ 0.25. Consider WGMA, for which the enrichment ratio was ≤ 0.25. In the case of TERA, the enrichment ratio is ≤ 0.25. In the case of NNAE, the enrichment ratio is ≤ 0.25. With HEHC, the enrichment ratio is ≤ 0.25. Take EGQH: the enrichment ratio is ≤ 0.25.

Regarding NRDS, the enrichment ratio is ≤ 0.25. Take AAVT: the enrichment ratio amounted to 2.41. In the case of ERMY, the enrichment ratio was ≤ 0.25. Then MQGI, with ≤ 0.25; and QCTH, with ≤ 0.25; and DYTE, with ≤ 0.25. The result for FIFE reads ≤ 0.25; that for IIKA, ≤ 0.25; that for MCLH, ≤ 0.25. As to IIAA, the enrichment ratio was ≤ 0.25. With VVYN, the enrichment ratio was ≤ 0.25. In the case of IAFS, the enrichment ratio was ≤ 0.25. For RHST, the enrichment ratio was ≤ 0.25. Consider ADVN, for which the enrichment ratio was ≤ 0.25. Take ICDE: the enrichment ratio is ≤ 0.25. In the case of GDFT, the enrichment ratio is ≤ 0.25. QYGT: the enrichment ratio is ≤ 0.25. The result for PIAR reads ≤ 0.25; that for PIFH, ≤ 0.25; that for PNSA, ≤ 0.25. Then ACVE, with ≤ 0.25. For the variant GDYC, the enrichment ratio is ≤ 0.25. The result for LWPE reads ≤ 0.25. On to KLTS, for which the enrichment ratio was ≤ 0.25.

Take WIIW: the enrichment ratio was ≤ 0.25. On to MGDR, for which the enrichment ratio was ≤ 0.25. For KIVD, the enrichment ratio was ≤ 0.25. Turning to EVFQ, the enrichment ratio was ≤ 0.25. The result for YQGC reads ≤ 0.25; that for MDMT, ≤ 0.25; that for EKNS, ≤ 0.25.

With PMEL, the enrichment ratio is ≤ 0.25. Turning to CRLY, the enrichment ratio is ≤ 0.25.

As to SAQV, the enrichment ratio came to 0.569. For WECG, the enrichment ratio was 3.2. With FKTN, the enrichment ratio is ≤ 0.25. The result for PPGN reads ≤ 0.25; that for WDNP, ≤ 0.25; that for LTHM, 3.95.

In the case of NWDV, the enrichment ratio was ≤ 0.25.

In the case of WGVD, the enrichment ratio is ≤ 0.25.

On to RGNM, for which the enrichment ratio is ≤ 0.25.

The values are drawn from a collection of fitness landscapes (doi:10.1126/science.1257360).
